Source: article PMC4336329 (PLoS ONE, 2015)
The campaign covered roughly 310,000 compounds. About 14,000 (4.5%) showed an effect of 50% or more. The effect is printed as a negative number. The list shows a part of the results.

target: human ether-à-go-go-related gene (hERG) potassium channel (human, UniProt Q12809); assay: primary screen, population patch clamp on CHO cells stably expressing hERG
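Note: peak tail current of the secondary pulse compared with the same well before compound.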

Sequence of human ether-à-go-go-related gene (hERG) potassium channel (Q12809 whole entry, looked up): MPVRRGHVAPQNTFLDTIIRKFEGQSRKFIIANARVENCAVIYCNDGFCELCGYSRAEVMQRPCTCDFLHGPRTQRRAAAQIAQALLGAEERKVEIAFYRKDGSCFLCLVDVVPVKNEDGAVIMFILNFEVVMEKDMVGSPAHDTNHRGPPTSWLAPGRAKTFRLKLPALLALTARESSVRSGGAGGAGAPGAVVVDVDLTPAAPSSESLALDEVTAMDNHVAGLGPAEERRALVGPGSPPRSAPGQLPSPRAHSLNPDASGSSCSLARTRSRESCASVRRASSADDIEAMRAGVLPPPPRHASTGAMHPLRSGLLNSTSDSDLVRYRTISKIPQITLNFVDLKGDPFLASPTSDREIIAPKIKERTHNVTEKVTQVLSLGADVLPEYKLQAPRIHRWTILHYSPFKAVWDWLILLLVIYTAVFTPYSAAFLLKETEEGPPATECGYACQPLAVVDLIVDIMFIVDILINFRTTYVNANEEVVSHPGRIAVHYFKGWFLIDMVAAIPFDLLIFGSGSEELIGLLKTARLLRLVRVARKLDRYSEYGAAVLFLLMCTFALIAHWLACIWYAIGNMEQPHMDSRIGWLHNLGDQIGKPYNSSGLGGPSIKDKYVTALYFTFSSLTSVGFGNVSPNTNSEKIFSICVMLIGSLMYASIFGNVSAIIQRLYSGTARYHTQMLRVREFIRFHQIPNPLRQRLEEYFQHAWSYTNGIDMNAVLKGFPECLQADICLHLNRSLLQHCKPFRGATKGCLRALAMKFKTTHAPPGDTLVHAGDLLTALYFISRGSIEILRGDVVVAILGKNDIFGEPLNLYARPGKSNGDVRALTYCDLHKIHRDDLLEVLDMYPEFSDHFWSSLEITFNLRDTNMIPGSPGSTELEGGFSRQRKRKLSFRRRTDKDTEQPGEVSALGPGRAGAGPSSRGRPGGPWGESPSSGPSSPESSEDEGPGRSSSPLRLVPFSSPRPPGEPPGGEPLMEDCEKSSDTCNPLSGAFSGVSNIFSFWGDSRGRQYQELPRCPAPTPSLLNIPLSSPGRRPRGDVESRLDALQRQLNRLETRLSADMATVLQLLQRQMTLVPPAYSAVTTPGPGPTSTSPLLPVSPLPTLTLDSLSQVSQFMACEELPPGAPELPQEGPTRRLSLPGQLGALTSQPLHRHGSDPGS

Compound	hERG current change (%, negative = inhibition) at 10uM [%]
CCOc1ccc(S(=O)(=O)N2CCOCC2)cc1NC(=O)CSCc1c(C)noc1C	-17.3
COC(=O)C(NNc1ccc(F)cc1)(NC(=O)c1ccccc1)C(F)(F)F (stereo not drawn)	-3.67
O=C(CSc1nnnn1-c1ccccc1)c1ccc(O)cc1O	7.63
Cc1ccc(-c2nc3ncccc3o2)cc1NC(=S)NC(=O)c1ccco1	11.2
CC(C)(C)[C@@H]1C=C(C(N)=O)O[C@H](OCCCCO)C1	2.58
COc1cccc(CN(CC(=O)NCc2ccco2)C(=O)CNS(=O)(=O)c2ccccc2)c1	-53.1
COc1ccc(NC(=O)c2cc(-c3cccs3)on2)c(OC)c1	22.7
O=C(O)c1ccccc1NS(=O)(=O)c1ccc2c3c(cccc13)C(=O)N2	16.1
Cc1cccc(C)c1OCC(=O)N/N=C/c1cccn1C	-8.88
COc1ccc(C(=O)OCCc2ccc(O)cc2)cc1	-7.61
CC(C)(O)C#Cc1ccc(C(=O)NCc2ccccc2F)cc1	0.639
CCc1ccc(N2CC(C(=O)Nc3ccc4c(c3)OCO4)CC2=O)cc1 (stereo not drawn)	26.3
CCN1CCN(Cc2cc(OC)c3c(c2)OCO3)CC1	9.99
CC(C)(C)NC(=O)NC(=O)CN1CCCc2ccccc21	7.02
CCNc1nc2[nH]c(=O)c3c(c2s1)OC(N)=C(C#N)C3c1ccc(C)cc1 (stereo not drawn)	1.97
COc1ccc(C2C3=C(CCCC3=O)Nc3nc(-c4cc(OC)c(OC)c(OC)c4)nn32)cc1OC (stereo not drawn)	-4.12
Cn1cccc1C(=O)OCC(=O)Nc1ccc2c(c1)CCC2	15.1
Cc1cccc(Nc2nc(-c3cccs3)cs2)n1	14.7
CCOC(=O)N1CCN(C(=O)CS(=O)(=O)c2cn(Cc3ccccc3Cl)c3ccccc23)CC1	-1.82
COc1ccc(-c2cn3cccc(C)c3n2)cc1F	-61.7
COc1ccc(S(=O)(=O)N2CCOCC2)cc1NC(=O)c1cccc2c(=O)c(C)c(-c3ccccc3)oc12	-32.9
Cc1ccc(NS(=O)(=O)c2c(C)[nH]c(C)c2C(=O)N2CCCCC2)c(Br)c1	-11.9
CC(=O)c1ccccc1NC(=O)CC1(CC(=O)O)CCCCC1	31

Compound	hERG current change (%, negative = inhibition) at 10uM [%]
O=C(NCc1ccccc1)c1cc(S(=O)(=O)N2CCC3(CC2)OCCO3)ccc1F	-6.48
Cn1c(=O)n(CC(=O)O)c(=O)c2c1nc1n2CCCN1Cc1ccccc1	17.4
COC(=O)C1=C(C)N(Cc2ccco2)C(=O)N[C@@H]1c1ccco1	5.27
CCOC(=O)c1ccc(-c2ccc(/C=N/NC(=O)Cc3nnc(N)s3)o2)cc1	13.6
CNCCCOc1ccc(Cl)cc1C(C)(C)C.O=C(O)C(=O)O	-20.6
Cc1ccc(S(=O)(=O)NCCNC(=O)c2ccc(C)nc2)cc1	-72
COc1ccc(/C=C(/NC(=O)/C=C/c2ccccc2)C(=O)NCCCCCC(=O)O)cc1	13.1
COCCNC(=O)C(OC(=O)c1cc2oc(C)cc2n1C)C(C)C (stereo not drawn)	-2
Cc1ccc(Cn2ccc(=O)c(OCc3ccccc3)c2C)cc1	-5.93
CC(NC(=O)C(=O)N1CCOCC1)C(c1cccs1)N1CCN(c2ccccc2)CC1 (stereo not drawn)	8.31
CNc1nc(N)c([N+](=O)[O-])c(NC2CCCCC2)n1	12
CC12CC3CC(C)(C1)CC(C(=O)N1CCCC1)(C3)C2	-8.94
CCOc1ccc(OCCC(=O)OCC(=O)NC2CC2)cc1	2.33
CCOC(=O)c1cnn(-c2ccccc2)c1-c1ccncc1	12.3
CCc1ccc(C(=O)COC(=O)c2cccc(N3C(=O)c4c(C)nc5ccccc5c4C3=O)c2)cc1	-27.9
COc1ccccc1/C=N/NC(=O)CNC(=O)c1ccc(S(=O)(=O)N2CCCC2)cc1	4.9
Cc1cc(N2CCc3ccccc32)n2ncnc2n1	-0.558
CC1=CS/C(=C(/C#N)C(=O)N2CCCCC2)N1c1ccccc1	8.52
CCC1=[N+](C)c2cccc3cccc(c23)N1C.[I-]	18.6
COc1ccc(CN(Cc2ccc(C(=O)O)cc2)C(=S)Nc2ccccc2C)cc1OC	24.9
Cc1cc2ccccc2cc(C)c1=O	7.96
CC(C)OCCCN(C)C1CCN(S(=O)(=O)c2csc(C(N)=O)c2)CC1	13.1
